Source: ChEMBL document CHEMBL4888484, “Replenishing the malaria drug discovery pipeline: Screening and hit evaluation of the MMV Hit Generation Library 1 (HGL1) against asexual blood stage Plasmodium falciparum ,using a nano luciferase reporter read-out” (2022)
Screen size: about 150,000 compounds; about 540 (0.36%) showed an effect of 50% or more. This is one part of the list.

These molecules were tested on Plasmodium falciparum (assay: Primary screen in NF54 nanoGlo assay, in single point, at 2uM, 72h; a lower Z score goes with more inhibition). Conditions: timepoint 72 hour.
Assay type: functional, Erythrocyte

Structure (SMILES) | % Inhibition [%] | Z score
O=C(c1cncc(O)c1)N1C[C@H]2CCC[C@@H](C2)C1 | -5 | 0.85
C[C@H](NC(=O)c1ccc(Cl)cc1Br)c1nccs1 | -3 | 0.6
Cc1ccc(C)n1-c1ccc(Cl)c(C(=O)NCc2nnc3ccccn23)c1 | -35 | 4.1
COc1ccc(-n2nc(-c3nnc(-c4ccccc4)[nH]3)c(N3CCN(c4ccccn4)CC3)n2)cc1 | -52 | 6.08
Cc1ccc(C)c(-n2nc(C)c(CNCC3(O)CCOCC3)c2Cl)c1 | -3 | 0.4
O=S(=O)(c1ccoc1)N1CCC[C@H](c2ccncc2)CC1 | -30 | 3.54
O=C(Nc1cnc2c(c1)COCC2)c1cccc(OC(F)F)c1 | -1 | 0.19
O=C1CCc2cc(NC(=O)C3CCCCC3)ccc2N1 | 15 | -2.78
NC[C@H]1CCN(C(=O)c2cc(F)ccc2-c2cccc(C(F)(F)F)c2)C1 | -6 | 0.89
COC(=O)c1ccc(N)c(OC(F)(F)F)c1 | 3 | -0.36
C1=CC2(CCNCC2)Oc2cc(OCc3ccccc3)ccc21 | -5 | 0.65
Cn1c(=S)sc2c(N3CCCCCC3)ncnc21 | -14 | 1.67
CS(=O)(=O)NC[C@](O)(c1ccsc1)c1cccs1 | -2 | 0.35
C[C@H](NC(=O)N1CCOCC1)c1ccc2c(c1)OCCO2 | -2 | 0.4
Cc1ccc(NC(=O)Cn2cnc3c(-c4ccccc4)nsc3c2=O)cc1Cl | -7 | 1.18
O=C(c1c(F)cccc1F)N1CCc2nc(N3CCCCC3)nc(Oc3ccccc3F)c2C1 | -4 | 0.43
CC(=O)O[C@@H](C)C(=O)N1CCC(n2nc(C(C)C)cc2C(C)C)CC1 | -7 | 1.35
COc1cc(NCc2cc3c(nc2OC)CN(C2CCCC2)C3=O)ncn1 | -11 | 1.4
O=C(CCCC(O)c1ccccc1)NCC1CCCOC1 (configuration not stated) | -6 | 1.13
NC(=O)NCC(=O)Nc1cccc(Br)c1 | -13 | 2.07
Cc1cc([C@@H]2CCCCN2C(=O)CN2C(=O)CNC2=O)no1 | -4 | 0.81
O=C(c1cc(S(=O)(=O)N2CCCC2)cs1)N1CCCc2ccccc21 | -14 | 1.64

Structure (SMILES) | % Inhibition [%] | Z score
CCn1c(=O)c(N2CCC(NC(=O)NC3CCCCC3)CC2)nc2cccnc21 | -11 | 1.31
Cc1cnccc1C(=O)N[C@@H](C)c1nnc(N)s1 | 15 | -1.67
COc1ccccc1N1CCN(C(=O)c2ccc(NS(=O)(=O)c3ccc(C)c(C)c3)cc2)CC1 | -7 | 0.77
O=C(O)CC1(CC(=O)N2CC[C@H]3COC(=O)N3c3cc(F)ccc3C2)CCCC1 | 10 | -1.17
CCCOc1cc(N2CCC(O)CC2)ccc1NCCOc1ccc(F)cc1 | 5 | -0.83
CCCCC(=O)N(CC(=O)N(Cc1ccccc1)Cc1ccc(C)o1)C(C)(C)C | -12 | 1.89
Cc1noc(C)c1S(=O)(=O)NCC(c1ccco1)c1ccco1 | -26 | 3.82
O=C(c1cc(F)cc(F)c1)N1CCC([C@]2(c3cccnc3)NC(=O)N(Cc3ccsc3)C2=O)CC1 | 7 | -0.85
O=C(NCc1nc2ccccc2s1)[C@@H]1CCCCn2nnnc21 | 8 | -1.09
CCn1cc(C(=O)N(C)c2ccc(F)c(Cl)c2)cn1 | -13 | 1.31
Cn1nc(-c2ccc(F)cc2)cc1C(=O)Nc1ccc2c(c1)C(=O)N1CCCC[C@H]1CCO2 | -13 | 1.52
Cc1noc(C)c1CS(=O)(=O)CCC(=O)N1CCCCC1 | -10 | 0.86
COc1cccc(C)c1NC(=O)c1cnn2c1C[C@@H](C)CC2 | -10 | 1.68
Cc1ccccc1-c1nccn1CCc1n[nH]c2c1CCCC2 | -11 | 2.1
CC(=O)c1ccccc1NC(=O)[C@H](C)N1CCC(c2nc(C)no2)CC1 | -10 | 1.61
Cc1csc(CNC(=O)N[C@@H](C)c2ccc(OC(F)(F)F)cc2)n1 | -9 | 0.86
Cc1cc2[nH]c(=O)[nH]c2c(NC(=O)c2ccnn2C(C)C)c1C | 12 | -1.35
Cc1ccccc1NC(=O)N1CCN(c2nc(N3CCOCC3)nc(-n3ccnc3)n2)CC1 | 12 | -1.52
O=C(O)c1cccnc1NCC1CCN(Cc2ccncc2)CC1 | 0 | -0.07
Cc1cc(CN(Cc2nccn2C)C2CC2)on1 | -22 | 2.37
Cc1nn(-c2cncc(C(N)=O)c2)c(C)c1-c1ccccc1O | -6 | 1.21
O=C(NC[C@@H](O)Cc1ccc(F)cc1F)C1CCC1 | 10 | -1.41

Structure (SMILES) | % Inhibition [%] | Z score
Cc1cn(CC(=O)Nc2ccc3c(n2)OCCO3)nc1C(F)(F)F | -1 | 0.12
CN1C(=O)c2ccc(-c3ccc(F)cc3F)cc2O[C@H]2CN(C3COC3)C[C@H]21 | -2 | 0.25
CCCN1CCCN(C(=O)Nc2ccc(-c3nc(C4CC4)no3)cc2C)CC1=O | -22 | 2.78
O=C(c1cn2ccnc(-c3ccc(F)cc3)c2n1)N1CCN(c2ccccc2)CC1 | -10 | 1.54
OCCN(Cc1ccsc1)C1Cc2ccccc2C1O (configuration not stated) | 7 | -0.8
CN(C)c1ccc(N2CCC(N3C(=O)[C@@H]4CCCN4C3=O)CC2)cc1 | -9 | 0.9
CC(C)N1CCN(C(=O)c2csc(NC(=O)c3ccc(Cl)cc3Cl)n2)CC1 | 0 | -0.07
CC(=O)N1CCN(Cc2nc3ccccc3o2)CC1 | -23 | 2.76
N#Cc1cccc(CN2CCN(C(=O)N3CCCC3)CC2)c1 | -12 | 1.65
O=C(NCc1nccnc1-c1cccs1)c1ccc2c(c1)OCO2 | -3 | 0.42
Cc1nc(C(C)(C)NCCN2C(=O)CCC2=O)sc1C | -10 | 1.6
COc1ccc(CNc2cncnc2OC)c(OC)c1 | 12 | -1.43
Cc1cccc2nc(C3CCN(Cc4cnc(N(C)C)n4C)CC3)oc12 | -10 | 1.24
COc1ccc(NC(=O)Cn2cnc3nc(N(C)Cc4ccccc4)sc3c2=O)cc1Cl | 32 | -4.27
CCc1nnc(NC(=O)c2ccsc2)s1 | 3 | -0.37
CC(C)(C(=O)Nc1nc2c(ccc3ccccc32)s1)S(C)(=O)=O | -6 | 1.05
Cn1ncc2c(=O)[nH]c(CN3CCC(C(=O)NC(C)(C)C)CC3)nc21 | 3 | -0.5
C=CCCC(=O)NC1CCCC(S(C)(=O)=O)C1 (configuration not stated) | -13 | 2.42
Cc1c(NC(=O)C2CCN(S(=O)(=O)Cc3ccc(F)cc3)CC2)c(=O)n(-c2ccccc2)n1C | 0 | -0.01
CCC(CO)NCC(O)COc1cccc(Br)c1 (configuration not stated) | -11 | 1.52
Cc1cc(C)n(CCC(=O)N2CCC[C@H]2C(F)(F)F)c(=O)n1 | -3 | 0.39
CC(C)N1C[C@@H]2C[C@H]1C(=O)NC[C@H]1O[C@H](CCOc3cc(-c4cnn(C)c4)ccc3C(=O)N2)CC[C@@H]1O | 33 | -3.7

Structure (SMILES) | % Inhibition [%] | Z score
COc1cccc(CNC2CC3CCC2C3)c1OC (configuration not stated) | -11 | 2.11
COc1ccc(CNC(=O)CCN2CCCCCCC2)cc1OC | -6 | 0.79
C[C@H](NC1(CO)CC1)c1ccc(Br)cc1F | 0 | 0.05
CCCN(C(=O)NCc1cccnc1)C1C2CCOC2C1(C)C (configuration not stated) | -2 | 0.17
Cc1cccnc1[C@@H](NS(=O)(=O)N(C)C)C1CC1 | -17 | 2.59
COC(C)(C)C(=O)N1CCC[C@H](c2[nH]ncc2-c2ccc(C)cc2)C1 | -8 | 1.09
CC[C@@H](C(=O)N1CC(Oc2ccccc2C)C1)N1CCCC1 | 5 | -0.96
CCNC(=O)c1cccnc1N(C)CCn1ccnc1C | -4 | 0.54
Cc1noc(CNC(=O)CC2CCCC2)n1 | -5 | 0.91
CCOc1ccccc1OC/C=C/CN1CCNCC1 | -13 | 1.44
Cc1nc([C@H](C)NC(=O)CCCn2cnnn2)cs1 | -5 | 0.87
CN(C)c1ccc(-n2nc3ccc(NC(=O)c4cccc5ccccc45)cc3n2)cc1 | -14 | 1.61
O=C(Nc1cccc(F)c1)N1CCN(c2nccs2)CC1 | -3 | 0.46
Cc1cc(C)c(NC(=O)CN(C)C(C)C(=O)NCC2CCCO2)c(C)c1 (configuration not stated) | -7 | 1.11
COc1nccnc1N1CCN2C(=O)OC[C@H]2C1 | -2 | 0.39
CN1CCCN(c2ncnc3c2CCN(C(=O)[C@H]2CCOC2)CC3)CC1 | -12 | 2.44
COCCn1cnnc1CNC(=O)Cc1ccc2[nH]c(C)nc2c1 | -12 | 2.22
CCCn1cc(Nc2cc(C(=O)OC)nc(C)n2)cn1 | 0 | 0
FC(F)(F)c1cc(-c2ccco2)nc(N(C2CCCCC2)C2CCCCC2)n1 | -10 | 1.13
CC1CN(Cc2ccccc2)CC(C)C1NC(=O)Nc1ccc(F)cn1 (configuration not stated) | -6 | 1.09
